# Test results published in PubChem BioAssay AID651820 (National Center for Advancing Translational Sciences (NCATS), 2012).
# Several values for one entry are separate records, joined by “and”; a condition that tells them apart may be missing. Identical values can stand only once. About 12,000 (3.5%) of roughly 340,000 compounds were called active. The shares of active, inactive and inconclusive entries below differ from those in the screen. Calls come from the whole dose curve; as a rule, active = well fitted inhibition curve with a large enough effect; inconclusive = small, poorly fitted or top-dose-only effect, or another doubt; inactive = no such curve, though single readings can be large or run the other way. Potencies of inconclusive entries are doubtful fits and often do not repeat.
# Experiment: qHTS Assay for Inhibitors of Hepatitis C Virus (HCV)
# Settings: Huh7.5.1 HCVcc-Cre (HCVcc is cell-culture hepatitis C virus) infection, luciferase reporter, 44 h; activity change, negative = inhibition: at 41.8 µM (top of the series)
# Procedure, shortened: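 Whole-lifecycle infectious HCVcc-Cre system; cells 1,000/well, compound then virus (~0.5 moi) added 4 h after plating, 44 h culture. Luciferase read 15 sec following 15 min substrate incubation, room temp.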
# % is set by controls: 0 for no effect and ±100 for the full control effect; potency is the fitted concentration of half-maximal effect; tags give direction and shape of the fitted curve.
SMILES,"activity change, negative = inhibition",Potency
CC(N)C(=O)c1ccco1 (centres undefined),inactive: 1.15%,
COc1ccc(CCNC(=O)C(=O)NCc2ccccn2)cc1,inactive: 8.17%,
COc1ccccc1/C=N/n1cnnc1,,"inconclusive: 5.62 µM [inhibitor, single point]"
O=C(COc1cccc(NC(=O)c2cccc([N+](=O)[O-])c2)c1)c1ccc(F)cc1,,"inconclusive: 12.6 µM [inhibitor, partial curve]"
Cc1cccc(NC(=O)C2(c3ccccc3)CC2(Cl)Cl)c1 (centres undefined),inactive: -26.4%,
Cc1c(C(=O)N2CCN(S(=O)(=O)c3ccccc3F)CC2)oc2c(Cl)cccc12,,"inconclusive: 28.2 µM [inhibitor, single point]"
Cn1c(C(=O)N2CCCC(C(=O)NCc3ccc4c(c3)OCO4)C2)cc2sccc21 (centres undefined),,"inconclusive: 10 µM [inhibitor, partial curve]"
CCn1c(=O)c2c3c(sc2n2c(SCc4ccc(F)cc4)nnc12)CCCC3,,"inconclusive: 31.6 µM [inhibitor, single point]"
CCn1c(SCC(=O)Nc2ccc(Br)cc2)nc2sc3c(c2c1=O)CCN(C)C3,,active: 4.47 µM
CNC(=S)NNC(=O)c1sccc1OCc1ccc(Cl)cc1Cl,inactive: -0.508%,
COc1cc(/C=N/Nc2ncnc3sc4c(c23)CCC4)ccc1O,,"inconclusive: 22.4 µM [inhibitor, single point]"
CCC(C)c1ccc(OCCCCN2CCOCC2)cc1 (centres undefined),inactive: -1.89%,
Cn1c(Cl)c(/C=N/OC(=O)C2CC2)c2ccccc21,,"inconclusive: 22.4 µM [inhibitor, single point]"
Cc1ccc2nc(NC(=O)CN(C)S(=O)(=O)c3ccc(Br)s3)sc2c1,,"inconclusive: 14.1 µM [inhibitor, single point]"
O=C(Nc1ccc(Cl)c(S(=O)(=O)N2CCOCC2)c1)C1CCCC1,,"inconclusive: 22.4 µM [inhibitor, single point]"
COc1ccc(NC(=O)N(C2CCCCC2)C(C)c2ccco2)c(OC)c1 (centres undefined),,"inconclusive: 35.5 µM [inhibitor, partial curve, poor fit]"
COc1cccc(NC(=O)CSc2ccc(-c3ccco3)nn2)c1,,"inconclusive: 11.2 µM [inhibitor, partial curve]"
CCc1nnc(NC(=O)CSc2nc(C)c3c(c2C#N)CCCC3)s1,,active: 11.2 µM
COc1nc(N=C(N)N)nc2ccc(C)cc12,,"inconclusive: 11.2 µM [inhibitor, single point]"
COC(CNC(=O)c1ccc(CS(=O)(=O)c2ccc(C)cc2)o1)OC,inactive: 5.79%,
Cn1cc(CN2CCCC(CO)(Cc3ccccc3)C2)cn1 (centres undefined),inactive: 15.4%,
COc1ccc(N(C)S(=O)(=O)c2cccc(C(=O)OC(C)C(=O)NC3CCCCC3C)c2)cc1 (centres undefined),inactive: -17.4%,
S=C(NCCc1ccc(Cl)cc1)NC1CCCC1,,"inconclusive: 31.6 µM [inhibitor, single point]"
CSc1nc(C)c2c(n1)N(c1ccc(C(C)C)cc1)CC2,,"inconclusive: 20 µM [inhibitor, partial curve, poor fit]"
CCN(CC)CCNC(=S)Nc1ccc2nc(N3CCCC3)cc(C)c2c1,,active: 2 µM

SMILES,"activity change, negative = inhibition",Potency
CCC(=O)n1nc(NCc2ccccc2OC)nc1NCc1ccccc1OC,,active: 11.2 µM
Cc1ccc(C(=O)Nc2ccccc2-c2ccccc2)cc1S(=O)(=O)Nc1cccc(C)c1C,,active: 10 µM
O=S(=O)(CCSc1nc2ccccc2s1)c1nc2ccccc2s1,,"inconclusive: 20 µM [inhibitor, single point]"
Cc1cc(C)c2c(=O)[nH]c(SCC(=O)Nc3ccccc3)nc2n1,inactive: 4.44%,
CCOc1cc(/C=C2\C(=O)NC(=O)N(CCc3ccc(F)cc3)C2=O)ccc1O,inactive: 19.8%,
CCn1cc(C(=O)NCc2ccco2)c(=O)c2cc(F)c(N3CCN(C(=O)c4ccco4)CC3)cc21,,"inconclusive: 12.6 µM [inhibitor, partial curve] and inconclusive: 6.31 µM [inhibitor, full curve]"
COc1ccc2[nH]cc(C(=O)CN3CC(C)CC(C)C3)c2c1 (centres undefined),inactive: -10.6%,
O=C(CN1CCC(NC(=O)C2CCCCC2)CC1)Nc1ccccc1,inactive: -0.103%,
CCCCC(=O)NC(c1cccc([N+](=O)[O-])c1)c1ccc2cccnc2c1O (centres undefined),,"inconclusive: 4.47 µM [inhibitor, full curve]"
CC(C)C(NC(=O)c1cccs1)C(=O)NC1=NCCS1 (centres undefined),inactive: -22.3%,
CC(C)Oc1ccc2c(=O)c(-c3ccccc3)coc2c1,,"inconclusive: 2.82 µM [inhibitor, partial curve]"
O=C(CCS(=O)(=O)c1cccc2nsnc12)NCc1ccccc1Cl,inactive: 5.65%,
N#Cc1ccc(OCC(=O)NNC(=O)C2CCCCC2)cc1,inactive: 27.3%,
CCOC(=O)c1c(NC(=O)c2cccc(N3C(=O)CCC3=O)c2)sc(C)c1C,,"inconclusive: 2.51 µM [inhibitor, single point]"
CC(C)C(NS(=O)(=O)c1cccc(C(F)(F)F)c1)C(=O)NCc1cccs1 (centres undefined),inactive: -7.72%,
CCSc1nnc(NC(=O)c2csc3c2CCC(C)C3)s1 (centres undefined),inactive: 6.63%,
O=C(COc1ccc(F)cc1)Nc1c(C(=O)N2CCC(N3CCCCC3)CC2)oc2ccccc12,,"inconclusive: 11.2 µM [inhibitor, partial curve]"
Cc1cc2cc3c(C)cc(=O)oc3c(C)c2o1,,"inconclusive: 1.12 µM [inhibitor, partial curve]"
CN(c1ccccc1)S(=O)(=O)c1ccc(C(=O)Nc2nnc(-c3ccco3)o2)cc1,,"inconclusive: 31.6 µM [inhibitor, single point]"
Cc1ccc(-c2csc(NC(=O)CN3CCOCC3)n2)cc1C,,"inconclusive: 31.6 µM [inhibitor, single point]"
O=C(Nc1ccccc1)c1ccc(CN2CCC(Cc3ccccc3)CC2)cc1,,"inconclusive: 0.562 µM [inhibitor, full curve, poor fit]"
COc1ccc2[nH]c(=O)c(CN(Cc3ccco3)C(c3nnnn3Cc3ccccc3)C(C)C)cc2c1 (centres undefined),,"inconclusive: 31.6 µM [inhibitor, single point]"
CCOC(=O)C1=C(C(F)(F)F)Nc2ncnn2C1c1ccc(OC)cc1OC (centres undefined),inactive: -16.3%,
CSc1ccc(Cl)c(C(=O)Nc2ccc(Cl)cn2)c1,inactive: -19.1%,
Cc1cccn2c(=O)c(/C=C(\C#N)C(=O)NC3CCS(=O)(=O)C3)c(Oc3ccccc3Cl)nc12 (centres undefined),inactive: -14.9%,

SMILES,"activity change, negative = inhibition",Potency
O=C(Nc1ccccc1N1CCOCC1)c1ccc(Cl)c(S(=O)(=O)N2CCCC2)c1,,"inconclusive: 11.2 µM [inhibitor, single point]"
O=C(NCC1CC1)C1(C(F)(F)F)CC(CCc2ccccc2)CCCO1 (centres undefined),,"inconclusive: 22.4 µM [inhibitor, single point]"
Nc1nonc1-n1nnc(C(=O)N/N=C/c2ccc(F)cc2)c1-c1cccs1,inactive: -10.8%,
COCc1cc(=O)n2[nH]c(-c3ccco3)cc2n1,inactive: 24.1%,
c1ccc2oc(NC3=NCN(CC4CCCO4)CN3)nc2c1 (centres undefined),inactive: 0.828%,
Cc1c(NC(=O)C(C)OC(=O)c2cc3c4ccccc4n(C)c3s2)c(=O)n(-c2ccccc2)n1C (centres undefined),,"inconclusive: 1.41 µM [inhibitor, partial curve]"
COc1ccc(C(=O)NCC(c2ccco2)N2CCCC2)cc1S(=O)(=O)N1CCCCC1C (centres undefined),inactive: -6.89%,
Cc1ccc(NC(=O)COc2coc(CN3CCN(c4ccccc4)CC3)cc2=O)cc1,,"inconclusive: 5.62 µM [inhibitor, single point]"
CC(=O)C1CCC2C3CCC4=CC(=O)CCC4(C)C3(F)C(O)CC12C (centres undefined),inactive: -5.42%,
COc1ccc(NC(=O)COc2ccccc2)c(OC)c1,,"inconclusive: 10 µM [inhibitor, partial curve]"
CCOC(=O)c1cccc(-n2c(C)nc3ccccc3c2=O)c1,inactive: 7.12%,
O=C(CSc1ccc2ccccc2n1)Nc1ccc(N2CCOCC2)cc1,,"inconclusive: 1.78 µM [inhibitor, partial curve]"
CCOc1ncccc1C(=O)OC(C)C(=O)Nc1ccc(CC)cc1 (centres undefined),,"inconclusive: 14.1 µM [inhibitor, partial curve]"
NS(=O)(=O)c1ccc(CCNc2ncnc3c2c(-c2ccccc2)cn3-c2ccc(F)cc2)cc1,,active: 11.2 µM
COc1cc(-c2nnc(-c3ccc(S(=O)(=O)c4ccccc4)cc3)o2)cc(OC)c1OC,,"inconclusive: 5.01 µM [inhibitor, full curve]"
COC(=O)C1=C(C)N(c2ccc(C)c(C)c2)/C(=C/c2cccs2)C1=O,,"inconclusive: 31.6 µM [inhibitor, single point]"
O=C(O)C1CCCN(C(=O)c2cccc3ccccc23)C1 (centres undefined),inactive: 1.97%,
O=C(CCCNS(=O)(=O)c1cccs1)N1CCN(c2cccc(Cl)c2)CC1,,"inconclusive: 31.6 µM [inhibitor, single point]"
O=C(COC(=O)Cn1cc(C(F)(F)F)ccc1=O)Nc1ccc(Br)cc1F,,"inconclusive: 31.6 µM [inhibitor, single point]"
O=C(NCCc1cccc(F)c1)C1CCN(S(=O)(=O)c2ccccc2)CC1,inactive: -7.43%,
CCCC12CN3CCN(CC(C3)/C1=N\NC(=O)c1ccc(C(C)(C)C)cc1)C2,,"inconclusive: 8.91 µM [inhibitor, partial curve]"
Cc1ccc(N(C)S(=O)(=O)c2cccc(C(=O)NNC(=O)c3ccncc3)c2)cc1,,"inconclusive: 22.4 µM [inhibitor, single point]"
C/C(=N\NC(=O)CCc1c[nH]c2ccccc12)c1cccc([N+](=O)[O-])c1,,"inconclusive: 7.08 µM [inhibitor, partial curve, poor fit]"
COc1ccccc1N1CCN(C(=O)CSc2nc3ccccc3nc2N2CCCCC2)CC1,,"inconclusive: 12.6 µM [inhibitor, single point]"
